Our source for the enrichment ratio values is a collection of fitness landscapes (doi:10.1126/science.1257360).

B1: PhoQ; a variant is named by its letters at X, in order, P23837 (parent)
chain: MKKLLRLFFPLSLRVRFLLATAAVVLVLSLAYGMVALIGYSVSFDKTTFRLLRGESNLFYTLAKWENNKLHVELPENIDKQSPTMTLIYDENGQLLWAQRDVPWLMKMIQPDWLKSNGFHEIEADVNDTSLLLSGDHSIQQQLQEVREDDDDAEMTHSVAVNVYPATSRMPKLTIVVVDTIPVELKSSYMVWSWFIYVLSANLLLVIPLLWVAAWWSLRPIEALAKEVRELEEHNRELLNPATTRELTSLVRNLNRLLKSERERYDKYRTTLTDLTHSLKTPLXXLQXXLRSLRSEKMSVSDAEPVMLEQISRISQQIGYYLHRASMRGGTLLSRELHPVAPLLDNLTSALNKVYQRKGVNISLDISPEISFVGEQNDFVEVMGNVLDNACKYCLEFVEISARQTDEHLYIVVEDDGPGIPLSKREVIFDRGQRVDTLRPGQGVGLAVAREITEQYEGKIVAGESMLGGARMEVIFGRQHSAPKDE

Some of the results follow.

Variants of B1 are the subject of this assay. The assay is described as follows: enrichment ratio after two sorts for PhoP signalling (ratio (wild type AVST 3.29)); higher = more functional. To be noted: with PhoP (E. coli).
As for IWMV, the enrichment ratio is no more than 0.25.

On to RRGH, for which the enrichment ratio is no more than 0.25.

As for DYHP, the enrichment ratio was no more than 0.25.

Turning to YTKV, the enrichment ratio was no more than 0.25.

Consider DRKP, for which the enrichment ratio was no more than 0.25.

As for QKRC, the enrichment ratio was no more than 0.25.

QRAK: the enrichment ratio was no more than 0.25.

In the case of PGIM, the enrichment ratio is no more than 0.25.

For the variant RMGT, the enrichment ratio is no more than 0.25.

As to SSRI, the enrichment ratio is no more than 0.25.

Take MTAA: the enrichment ratio was no more than 0.25.

Consider TLEN, for which the enrichment ratio was 3.73.

As for DHNG, the enrichment ratio was no more than 0.25.

As for FHGA, the enrichment ratio was no more than 0.25.

On to VSGQ, for which the enrichment ratio is no more than 0.25.

For the variant FGER, the enrichment ratio is no more than 0.25.

Regarding GVAP, the enrichment ratio was no more than 0.25.

In the case of FHYN, the enrichment ratio is no more than 0.25.

With ESWY, the enrichment ratio is no more than 0.25.

Turning to PGLL, the enrichment ratio was no more than 0.25.

Take ISWM: the enrichment ratio was no more than 0.25.

GVRH: the enrichment ratio is no more than 0.25.

For the variant DRQL, the enrichment ratio is no more than 0.25.

Regarding HRLK, the enrichment ratio is no more than 0.25.

As to GQDR, the enrichment ratio was no more than 0.25.

With VHKQ, the enrichment ratio is no more than 0.25.

Take NEVS: the enrichment ratio stood at 0.873.

For DHYR, the enrichment ratio was no more than 0.25.

With LWYS, the enrichment ratio is no more than 0.25.

On to LWFP, for which the enrichment ratio was no more than 0.25.

For HRKC, the enrichment ratio is no more than 0.25.

With ELMG, the enrichment ratio was no more than 0.25.

Consider INTA, for which the enrichment ratio is no more than 0.25.

Regarding VKLS, the enrichment ratio is no more than 0.25.

On to PVAR, for which the enrichment ratio was no more than 0.25.

Take IHKQ: the enrichment ratio was no more than 0.25.

For PKPT, the enrichment ratio was no more than 0.25.

As for RKPT, the enrichment ratio was no more than 0.25.

Take QYTG: the enrichment ratio is no more than 0.25.

Turning to MTAT, the enrichment ratio stood at 3.47.

As to MIYM, the enrichment ratio was 4.83.

Consider DGQY, for which the enrichment ratio is no more than 0.25.

In the case of VCEV, the enrichment ratio was no more than 0.25.

Regarding VHMI, the enrichment ratio was no more than 0.25.

In the case of WPMW, the enrichment ratio was no more than 0.25.

As for SLHT, the enrichment ratio was no more than 0.25.

As to ITDK, the enrichment ratio is no more than 0.25.

On to ILFI, for which the enrichment ratio was no more than 0.25.

As to KEYS, the enrichment ratio was no more than 0.25.

For EPMR, the enrichment ratio is no more than 0.25.

Take GEVW: the enrichment ratio was no more than 0.25.

YNAM: the enrichment ratio is no more than 0.25.

YWFW: the enrichment ratio was no more than 0.25.

With RQVK, the enrichment ratio is no more than 0.25.

Take EFLG: the enrichment ratio is no more than 0.25.

For the variant ACGP, the enrichment ratio came to 0.562.

As for DRCE, the enrichment ratio was no more than 0.25.

In the case of CIFT, the enrichment ratio is no more than 0.25.

As for PNLC, the enrichment ratio was determined as 1.41.

Regarding SCKP, the enrichment ratio was no more than 0.25.

For the variant MKWP, the enrichment ratio was no more than 0.25.

For TANE, the enrichment ratio was 18.3.

In the case of QRYL, the enrichment ratio is no more than 0.25.

With IEWW, the enrichment ratio is no more than 0.25.

For VPHD, the enrichment ratio was no more than 0.25.

Regarding YGSE, the enrichment ratio is no more than 0.25.

For FMFP, the enrichment ratio is no more than 0.25.

As to PYRR, the enrichment ratio is no more than 0.25.

For YCMT, the enrichment ratio was 0.253.

As for QDYK, the enrichment ratio is no more than 0.25.

NQEV: the enrichment ratio is no more than 0.25.

With KLNN, the enrichment ratio is no more than 0.25.

For the variant FDTI, the enrichment ratio was no more than 0.25.

DNNI: the enrichment ratio is no more than 0.25.

With SSAN, the enrichment ratio is 12.6.

On to LHDI, for which the enrichment ratio is no more than 0.25.

GRTN: the enrichment ratio was no more than 0.25.

For KMIH, the enrichment ratio is no more than 0.25.

In the case of WRFC, the enrichment ratio is no more than 0.25.

YKMH: the enrichment ratio is no more than 0.25.

Consider HQQL, for which the enrichment ratio was no more than 0.25.

On to WKGM, for which the enrichment ratio was no more than 0.25.

In the case of LARV, the enrichment ratio was no more than 0.25.

Take PVEV: the enrichment ratio is no more than 0.25.

Regarding LAPV, the enrichment ratio was no more than 0.25.

For LGYR, the enrichment ratio is no more than 0.25.

Turning to LKES, the enrichment ratio is no more than 0.25.

Take HWRP: the enrichment ratio is no more than 0.25.

For the variant LVTT, the enrichment ratio is no more than 0.25.

Take RNLT: the enrichment ratio is no more than 0.25.

HWPS: the enrichment ratio was no more than 0.25.

For TRSD, the enrichment ratio is no more than 0.25.

As for MCAC, the enrichment ratio turned out to be 6.31.

As for TEPL, the enrichment ratio is no more than 0.25.

With RDVS, the enrichment ratio was no more than 0.25.

As to GCAR, the enrichment ratio was no more than 0.25.

For FDRM, the enrichment ratio was no more than 0.25.

Regarding WDTL, the enrichment ratio was no more than 0.25.

On to RDNH, for which the enrichment ratio was no more than 0.25.

Turning to SDGS, the enrichment ratio is no more than 0.25.

For the variant RITY, the enrichment ratio was no more than 0.25.

On to NQNY, for which the enrichment ratio is no more than 0.25.

In the case of MPAY, the enrichment ratio was no more than 0.25.

For NMVS, the enrichment ratio was no more than 0.25.

LRLI: the enrichment ratio was no more than 0.25.

Consider WYHR, for which the enrichment ratio is no more than 0.25.

YQCA: the enrichment ratio was no more than 0.25.

As for TQKL, the enrichment ratio is no more than 0.25.

As for QIHV, the enrichment ratio was no more than 0.25.

Turning to QQDI, the enrichment ratio was determined as 4.8.

In the case of IRPH, the enrichment ratio was no more than 0.25.

Regarding LGGK, the enrichment ratio was no more than 0.25.

Take YWNL: the enrichment ratio was no more than 0.25.

As for YEMI, the enrichment ratio worked out at 6.9.

Consider GFSD, for which the enrichment ratio was no more than 0.25.

Regarding SCST, the enrichment ratio was 10.5.

On to HTNL, for which the enrichment ratio was no more than 0.25.

Turning to EVES, the enrichment ratio was no more than 0.25.

As to NDGE, the enrichment ratio was no more than 0.25.

As to WKNT, the enrichment ratio is no more than 0.25.

Regarding HLLY, the enrichment ratio was no more than 0.25.

For PIGW, the enrichment ratio is no more than 0.25.

Turning to HGLY, the enrichment ratio came to 3.92.

With YWQQ, the enrichment ratio is no more than 0.25.

Consider GCVI, for which the enrichment ratio is no more than 0.25.

In the case of TDLF, the enrichment ratio is 0.961.

Turning to WASQ, the enrichment ratio was no more than 0.25.

In the case of AQLQ, the enrichment ratio is 5.87.

As to EITF, the enrichment ratio was no more than 0.25.

AEAR: the enrichment ratio was no more than 0.25.

Turning to GCVT, the enrichment ratio is no more than 0.25.

Turning to RSCR, the enrichment ratio was no more than 0.25.

Turning to LYAT, the enrichment ratio came to 0.257.

Turning to IICQ, the enrichment ratio was no more than 0.25.

In the case of EKAH, the enrichment ratio is no more than 0.25.

In the case of GQLM, the enrichment ratio came to 5.26.

For QGSE, the enrichment ratio is 7.43.

For the variant FEHH, the enrichment ratio was no more than 0.25.

RQQY: the enrichment ratio is no more than 0.25.

Turning to TQSY, the enrichment ratio worked out at 12.3.

Regarding NYPQ, the enrichment ratio is no more than 0.25.

DKSV: the enrichment ratio was no more than 0.25.

Regarding IGAN, the enrichment ratio was no more than 0.25.

On to NSIC, for which the enrichment ratio was no more than 0.25.

In the case of QTTS, the enrichment ratio was no more than 0.25.

Regarding HAGL, the enrichment ratio is no more than 0.25.

In the case of LDVT, the enrichment ratio is no more than 0.25.

For the variant QLQP, the enrichment ratio was no more than 0.25.

Turning to FMPF, the enrichment ratio is no more than 0.25.

As to HQDV, the enrichment ratio was no more than 0.25.

Consider SCII, for which the enrichment ratio was 5.01.

On to SFLV, for which the enrichment ratio was 1.19.

Take KYCL: the enrichment ratio was no more than 0.25.
